# According to the supplement of paper PMC8728848:
# The list shows a part of the results.
# Key:
# Test in all cases: glycan array binding signal (z-score within array); higher = stronger binding
# Conditions in all cases: glycan notation: IUPAC condensed, linker removed
# Fuc(a1-2)Gal = biological target: Fuc(a1-2)Gal
# Procedure, shortened: (§1)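 The binding signal is a Z-score computed within each array and averaged over linkers. Arrays of the same protein sequence at different concentrations or buffers were also averaged together. Data originate from 3228 arrays in the Consortium for Functional Glycomics database, kept only where the protein sequence was available.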
# Fuc(a1-2)Gal(b1-3)GalNAc = biological target: Fuc(a1-2)Gal(b1-3)GalNAc
# Procedure, shortened: as §1
# [1] = biological target: Fuc(a1-2)Gal(b1-3)GalNAc(a1-3)[Fuc(a1-2)]Gal(b1-4)Glc
# Procedure, shortened: as §1
# [2] = biological target: Fuc(a1-2)Gal(b1-3)GalNAc(a1-3)[Fuc(a1-2)]Gal(b1-4)GlcNAc
# Procedure, shortened: as §1
# [3] = biological target: Fuc(a1-2)Gal(b1-3)GalNAc(b1-3)Gal
# Procedure, shortened: as §1
# [4] = biological target: Fuc(a1-2)Gal(b1-3)GalNAc(b1-3)Gal(a1-4)Gal(b1-4)Glc
# Procedure, shortened: as §1
# [5] = biological target: Fuc(a1-2)Gal(b1-3)GalNAc(b1-4)[Neu5Ac(a2-3)]Gal(b1-4)Glc
# Procedure, shortened: as §1
# Fuc(a1-2)Gal(b1-3)GlcNAc = biological target: Fuc(a1-2)Gal(b1-3)GlcNAc
# Procedure, shortened: as §1
# [6] = biological target: Fuc(a1-2)Gal(b1-3)GlcNAc(b1-2)Man(a1-3)[Fuc(a1-2)Gal(b1-3)GlcNAc(b1-2)Man(a1-6)]Man(b1-4)GlcNAc(b1-4)GlcNAc
# Procedure, shortened: as §1
# [7] = biological target: Fuc(a1-2)Gal(b1-3)GlcNAc(b1-2)Man(a1-3)[Fuc(a1-2)Gal(b1-3)GlcNAc(b1-2)Man(a1-6)]Man(b1-4)GlcNAc(b1-4)[Fuc(a1-6)]GlcNAc
# Procedure, shortened: as §1
# [8] = biological target: Fuc(a1-2)Gal(b1-3)GlcNAc(b1-3)Gal(b1-4)Glc
# Procedure, shortened: as §1
# [9] = biological target: Fuc(a1-2)Gal(b1-3)GlcNAc(b1-3)GalNAc
# Procedure, shortened: as §1
# [10] = biological target: Fuc(a1-2)Gal(b1-3)GlcNAc(b1-3)[Fuc(a1-2)Gal(b1-3)GlcNAc(b1-6)]GalNAc
# Procedure, shortened: as §1
# [11] = biological target: Fuc(a1-2)Gal(b1-3)GlcNAc(b1-3)[Gal(b1-4)GlcNAc(b1-6)]Gal(b1-4)Glc
# Procedure, shortened: as §1
# [12] = biological target: Fuc(a1-2)Gal(b1-3)GlcNAc(b1-3)[Neu5Ac(a2-6)Gal(b1-4)GlcNAc(b1-6)]Gal(b1-4)Glc
# Procedure, shortened: as §1
# [13] = biological target: Fuc(a1-2)Gal(b1-3)GlcNAc6S
# Procedure, shortened: as §1
# [14] = biological target: Fuc(a1-2)Gal(b1-3)[Fuc(a1-4)]GlcNAc
# Procedure, shortened: as §1
# [15] = biological target: Fuc(a1-2)Gal(b1-3)[Fuc(a1-4)]GlcNAc(b1-2)Man(a1-3)[Fuc(a1-2)Gal(b1-3)[Fuc(a1-4)]GlcNAc(b1-2)Man(a1-3)]Man(b1-4)GlcNAc(b1-4)GlcNAc
# Procedure, shortened: as §1
# [16] = biological target: Fuc(a1-2)Gal(b1-3)[Fuc(a1-4)]GlcNAc(b1-2)Man(a1-3)[Fuc(a1-2)Gal(b1-3)[Fuc(a1-4)]GlcNAc(b1-2)Man(a1-6)]Man(b1-4)GlcNAc(b1-4)[Fuc(a1-6)]GlcNAc(b1-4)[Fuc(a1-6)]GlcNAc
# Procedure, shortened: as §1
# [17] = biological target: Fuc(a1-2)Gal(b1-3)[Fuc(a1-4)]GlcNAc(b1-3)[Fuc(a1-3)[Gal(b1-4)]GlcNAc(b1-6)]Gal(b1-4)Glc
# Procedure, shortened: as §1
# [18] = biological target: Fuc(a1-2)Gal(b1-3)[Fuc(a1-4)]GlcNAc(b1-3)[Gal(b1-4)GlcNAc(b1-6)]Gal(b1-4)Glc
# Procedure, shortened: as §1
# Fuc(a1-2)Gal(b1-4)Glc = biological target: Fuc(a1-2)Gal(b1-4)Glc
# Procedure, shortened: as §1
# Fuc(a1-2)Gal(b1-4)Glc6S = biological target: Fuc(a1-2)Gal(b1-4)Glc6S
# Procedure, shortened: as §1
# Fuc(a1-2)Gal(b1-4)GlcNAc = biological target: Fuc(a1-2)Gal(b1-4)GlcNAc
# Procedure, shortened: as §1
# [19] = biological target: Fuc(a1-2)Gal(b1-4)GlcNAc(b1-2)Man
# Procedure, shortened: as §1
# [20] = biological target: Fuc(a1-2)Gal(b1-4)GlcNAc(b1-2)Man(a1-3)[Fuc(a1-2)Gal(b1-4)GlcNAc(b1-2)Man(a1-6)]Man(b1-4)GlcNAc(b1-4)GlcNAc
# Procedure, shortened: as §1
# [21] = biological target: Fuc(a1-2)Gal(b1-4)GlcNAc(b1-2)Man(a1-3)[Fuc(a1-2)Gal(b1-4)GlcNAc(b1-2)Man(a1-6)]Man(b1-4)GlcNAc(b1-4)[Fuc(a1-6)]GlcNAc
# Procedure, shortened: as §1
# [22] = biological target: Fuc(a1-2)Gal(b1-4)GlcNAc(b1-2)[Fuc(a1-2)Gal(b1-4)GlcNAc(b1-4)]Man(a1-3)[Fuc(a1-2)Gal(b1-4)GlcNAc(b1-2)Man(a1-6)]Man(b1-4)GlcNAc(b1-4)GlcNAc
# Procedure, shortened: as §1
# [23] = biological target: Fuc(a1-2)Gal(b1-4)GlcNAc(b1-3)Gal(b1-4)GlcNAc
# Procedure, shortened: as §1
# [24] = biological target: Fuc(a1-2)Gal(b1-4)GlcNAc(b1-3)Gal(b1-4)GlcNAc(b1-2)Man(a1-3)[Fuc(a1-2)Gal(b1-4)GlcNAc(b1-3)Gal(b1-4)GlcNAc(b1-2)Man(a1-6)]Man(b1-4)GlcNAc(b1-4)GlcNAc
# Procedure, shortened: as §1
binder,measurement,setting,value
Cohesin-hLangerin (Homo sapiens) (protein) LDDLDAVRIKVDTVNAKPGDTVRIPVRFSGIPSKGIANCDFVYSYDPNVLEIIEIEPGDIIVDPNPDKSFDTAVYPDRKIIVFLFAEDSGTGAYAITKDGVFATIVAKVKEGAPNGLSVIKFVEVGGFANNDLVEQKTQFFDGGANVGDTTEPATPTTPVTTPTTTDDLDAASYPRFMGTISDVKTNVQLLKGRVDNISTLDSEIKKNSDGMEAAGVQIQMVNESLGYVRSQFLKLKTSVEKANAQIQILTRSWEEVSTLNAQIPELKSDLEKASALNTKIRALQGSLENMSKLLKRQNDILQVVSQGWKYFKGNFYYFSLIPKTWYSAEQFCVSRNSHLTSVTSESEQEFLYKTAGGLIYWIGLTKAGMEGDWSWVDDTPFNKVQSARFWIPGEPNNAGNNEHCGNIKAPSLQAWNDAPCDKTFLFICKRPYVPSEPHHHHHH,glycan array binding signal (z-score),Fuc(a1-2)Gal,0.028
same,glycan array binding signal (z-score),Fuc(a1-2)Gal(b1-3)GalNAc,-0.421
same,glycan array binding signal (z-score),[1],-0.423
same,glycan array binding signal (z-score),[2],-0.405
same,glycan array binding signal (z-score),[3],0.364
same,glycan array binding signal (z-score),[4],-0.334
same,glycan array binding signal (z-score),[5],-0.321
same,glycan array binding signal (z-score),Fuc(a1-2)Gal(b1-3)GlcNAc,-0.364
same,glycan array binding signal (z-score),[6],1.65
same,glycan array binding signal (z-score),[7],2.42
same,glycan array binding signal (z-score),[8],-0.415
same,glycan array binding signal (z-score),[9],-0.243
same,glycan array binding signal (z-score),[10],-0.262
same,glycan array binding signal (z-score),[11],-0.423
same,glycan array binding signal (z-score),[12],-0.42
same,glycan array binding signal (z-score),[13],0.03
same,glycan array binding signal (z-score),[14],-0.409
same,glycan array binding signal (z-score),[15],0.307
same,glycan array binding signal (z-score),[16],0.805
same,glycan array binding signal (z-score),[17],-0.449
same,glycan array binding signal (z-score),[18],-0.422
same,glycan array binding signal (z-score),Fuc(a1-2)Gal(b1-4)Glc,-0.322
same,glycan array binding signal (z-score),Fuc(a1-2)Gal(b1-4)Glc6S,-0.348
same,glycan array binding signal (z-score),Fuc(a1-2)Gal(b1-4)GlcNAc,-0.189
same,glycan array binding signal (z-score),[19],-0.254
same,glycan array binding signal (z-score),[20],0.805
same,glycan array binding signal (z-score),[21],2.24
same,glycan array binding signal (z-score),[22],1.79
same,glycan array binding signal (z-score),[23],0.532
same,glycan array binding signal (z-score),[24],1.25
